In PubChem BioAssay AID686978 (National Center for Advancing Translational Sciences (NCATS), 2013):
Where “and” joins values, the source holds several entries; their conditions need not be identical. Equal entries are not always repeated. Among all 420,000 compounds or so, about 64,000 (15%) were called active. The shares of active, inactive and inconclusive entries below differ from those in the screen. The call rests on the fitted dose curve; in most records, active means well fitted inhibition curve with a large enough effect; inconclusive means small, poorly fitted or top-dose-only effect; inactive means flat fitted curve, though single readings scatter. Potencies of inconclusive entries are doubtful fits and often do not repeat.
On the % scale 0 is the no-effect control and ±100 the full control effect; potency means the concentration at half of the fitted maximal effect; tags describe the fitted curve by direction and shape.

Assay: qHTS for Inhibitors of human tyrosyl-DNA phosphodiesterase 1 (TDP1): qHTS in cells in absence of CPT; further: nearly all actives have a fitted effect of over 55% in size
Conditions: DT40 Tdp1-/- hTDP1 cells, no CPT, ATP luminescence, 48 h; activity change, negative = growth inhibition: at 46.2 µM (top of the series) unless noted
How it was run: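 Readout: luminescence from CellTiter-Glo after 30 min in the dark at RT. Cells: DT40 Tdp1-/- with stable hTDP1, 400/well. Exposure: compounds alone, ≥48 hr, 37 °C.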
For `CN(C)c1nc(N)nc(CSc2ccccn2)n1`, the “activity change, negative = growth inhibition” value was inactive: 0.12%. For `CCCC(=O)c1ccc(N2CCN(S(=O)(=O)c3ccc(C)cc3)CC2)c(F)c1`, the Potency was active: 7.08 µM. For `COc1cccc(CCOC(=O)c2c(-c3ccsc3)oc3c2C(OC(C)=O)CCC3)c1` (stereo not drawn), the Potency was inconclusive: 23.1 µM [inhibitor, single point]. With `Cn1c(CN2CCCCC2)nc2cc(NC(=O)c3cccc(Br)c3)ccc21` the Potency was inconclusive: 15.8 µM [inhibitor, single point] and inconclusive: 25.9 µM [inhibitor, single point]. With `COc1ccc(CCNc2ncnc3sc(C(=O)N4CCCC4)c(C)c23)cc1OC` the Potency was inconclusive: 20.6 µM [inhibitor, single point]. In the case of `O=C(c1ccco1)N(CCO)Cc1cc2cc3c(cc2[nH]c1=O)OCO3`, the “activity change, negative = growth inhibition” value is reported as inactive: -19%. In the case of `CCCCCN(C(=O)CCC(=O)OCc1ccc(C(C)(C)C)cc1)c1c(N)n(CCCC)c(=O)[nH]c1=O`, the Potency is reported as inconclusive: 29.1 µM [inhibitor, single point]. With `CCCCn1cc(S(=O)(=O)c2ccc(C)c(C)c2)c(=O)c2cc(F)c(N3CCN(C)CC3)cc21` the activity change, negative = growth inhibition was inconclusive: -31% [inhibitor]. For `NC(=O)CSc1oc(-c2ccco2)nc1S(=O)(=O)c1ccc(Br)cc1`, the Potency was “inactive”. In the case of `O=C(C1CN(C(=O)c2cc3cc(Cl)ccc3o2)c2ccccc2O1)N1CCCCC1` (stereo not drawn), the Potency is reported as inconclusive: 18.4 µM [inhibitor, single point]. With `Cc1ccc2nc(NC(=O)CCCC(=O)O)sc2c1` the Potency was inconclusive: 29.1 µM [inhibitor, single point]. In the case of `OC(c1ccccc1)c1ncc(-c2ccc(Cl)cc2)[nH]1` (stereo not drawn), the “activity change, negative = growth inhibition” value is reported as inactive: -9.9%. With `CCc1nn(CC(=O)NC(C)CCc2ccccc2)c(=O)c2cc3cc(F)ccc3n12` (stereo not drawn) the Potency was inconclusive: 4.61 µM [inhibitor, full curve]. In the case of `COc1ccc(C(C#N)=Cc2ccc(OC)c(OC)c2)cc1`, the Potency is reported as inconclusive: 29.1 µM [inhibitor, single point]. For `O=C(CCOc1ccccc1)Nc1ccnn1C1CCN(C(=O)CCC(F)(F)F)CC1`, the “activity change, negative = growth inhibition” value was inactive: -1.86%. With `Cc1onc(-c2c(Cl)cccc2Cl)c1C(=O)N1CCN(c2ccc(F)cc2)CC1` the Potency was inconclusive: 20.6 µM [inhibitor, partial curve]. With `CCC(Oc1ccccc1)C(=O)Nc1ccc(O)c(-c2nc3cc(C)ccc3o2)c1` (stereo not drawn) the activity change, negative = growth inhibition was inconclusive: -33.3% [inhibitor]. In the case of `CCOC(=O)C1=C(CN2CC(C)CC(C)C2)NC(=O)NC1c1ccc2c(c1)OCO2` (stereo not drawn), the Potency is reported as active: 25.9 µM. In the case of `CCC(C(=O)Nc1ccccc1C(=O)OC)n1c(C)c2cnn(-c3ccccc3)c(=O)c2c1C` (stereo not drawn), the Potency is reported as inconclusive: 29.1 µM [inhibitor, single point]. With `CCCCC(=O)Nc1nc2c(OC)cc([N+](=O)[O-])cc2s1` the “activity change, negative = growth inhibition” value was inactive: -29.4%. In the case of `COc1ccc(/C(N)=N/OC(=O)c2cccc([N+](=O)[O-])c2)cc1`, the Potency is reported as inconclusive: 20.6 µM [inhibitor, partial curve, poor fit]. In the case of `CC1(C(=O)NS(=O)(=O)C2CC2)CCN(C(=O)CSc2ccccc2)C1` (stereo not drawn), the “activity change, negative = growth inhibition” value is reported as inactive: 12.9%. With `Cc1ccc(NC(=O)c2ccc(=O)[nH]c2)cc1S(=O)(=O)N1CCCCC1` the “activity change, negative = growth inhibition” value was inactive: -12.6%. With `Cc1cc(C)nc(N/N=C/c2ccccc2OCc2cccc(Br)c2)n1` the Potency was active: 18.4 µM. In the case of `Cc1ccc(C(=O)CSc2nc(C)cc(=O)[nH]2)cc1`, the “activity change, negative = growth inhibition” value is reported as inactive: -21.7%. In the case of `Cc1ccccc1Oc1ccc2c(c1)[C@@H]1C[C@H](N(C)C(=O)c3ccc(C#N)cc3)[C@H]([C@H](C)O)C(=O)N1CC2`, the Potency is reported as inconclusive: 18.4 µM [inhibitor, single point]. In the case of `COc1ccc(/C=C2\SC(=O)N(CCC(=O)N3CCN(C)CC3)C2=O)cc1`, the Potency is reported as inconclusive: 11.6 µM [inhibitor, partial curve]. In the case of `O=S(=O)(c1cccc2ccccc12)N1CCC2CC1c1cc(-c3ccc(F)cc3)ccc12` (stereo not drawn), the Potency is reported as inconclusive: 20.6 µM [inhibitor, single point]. In the case of `O=CN1CCCN(C(=O)c2cc(NC(=O)c3ccccc3)cc3ncn(C4CCCC4)c23)CC1`, the “activity change, negative = growth inhibition” value is reported as inactive: -13%. With `CCCCCCCN1N=C(C)C(C(=O)c2ccccc2)C1=O` (stereo not drawn) the Potency was inconclusive: 16.4 µM [inhibitor, single point]. For `Cc1ccc(NC(=O)Nc2ccc(Cl)cc2)c(Br)c1`, the Potency was active: 23.1 µM. For `CC1(c2ccccc2)C(C#N)C(=O)NC(=O)C1C#N` (stereo not drawn), the “activity change, negative = growth inhibition” value was inactive: 0.259%. For `Cc1sc2nc(CSCC(=O)NC3CCCCC3)[nH]c(=O)c2c1C`, the activity change, negative = growth inhibition was inconclusive: -31.6% [inhibitor]. For `CCOc1ccccc1Oc1cn[nH]c1-c1ccc(OC)cc1O`, the Potency was inconclusive: 20.6 µM [inhibitor, single point]. In the case of `COc1ccc(NS(=O)(=O)c2csc(C(=O)N3CCCC3)c2)c(OC)c1`, the Potency is reported as inconclusive: 20.6 µM [inhibitor, single point]. For `CC(C)(C)C(=O)c1cn(CC(=O)NCc2ccc3c(c2)OCO3)c2ccccc12`, the Potency was active: 23.1 µM. In the case of `OCc1ccccc1-c1nc(NCC2CC2)nc2ccsc12`, the Potency is reported as inconclusive: 16.4 µM [inhibitor, single point]. For `Cc1cccc(NC(=O)c2ccc(S(=O)(=O)N(C)c3ccccc3)cc2)n1`, the Potency was active: 20.6 µM. With `CCCC(=O)Nc1nc2c(C)c(Cl)ccc2s1` the Potency was inconclusive: 14.6 µM [inhibitor, partial curve, poor fit]. In the case of `CCCCCN1CSC(=S)N(Cc2ccccc2)C1`, the Potency is reported as active: 3.66 µM. With `CC(=O)c1cc(CN2CCN(C(C)C)C(CCO)C2)cs1` (stereo not drawn) the Potency was inconclusive: 29.1 µM [inhibitor, partial curve, poor fit]. In the case of `Cc1ccc(C)c(S(=O)(=O)Nc2ccc(C(=O)NCCCN3CCCC3=O)cc2)c1`, the “activity change, negative = growth inhibition” value is reported as inactive: -14.7%. With `O=C(Cn1cc(S(=O)(=O)Cc2ccccc2Cl)c2ccccc21)NCc1ccccc1Cl` the Potency was inconclusive: 29.1 µM [inhibitor, single point]. With `COc1cccc(NC(=O)Nc2ccc3c(c2)nnn3C)c1` the Potency was inconclusive: 20.6 µM [inhibitor, single point]. For `COc1ccc(NC(=O)Cn2c(=O)n(CCCC(=O)NCc3ccccc3OC)c(=O)c3ccccc32)cc1Cl`, the “activity change, negative = growth inhibition” value was inactive: -20.6%. In the case of `CCOc1cc(/C=C(\C#N)c2[nH]nc(N)c2C#N)ccc1O`, the Potency is reported as active: 10.3 µM. In the case of `O=C(Nc1ccccn1)c1ccc(C(=O)c2ccccc2)cc1`, the Potency is reported as inconclusive: 23.1 µM [inhibitor, partial curve, poor fit]. In the case of `CCCN1CN(CCc2ccccc2)CNC1=S`, the Potency is reported as inconclusive: 29.1 µM [inhibitor, single point]. With `Cn1c(NCCCCO)nc2c1c(=O)n(Cc1ccc(Cl)cc1)c(=O)n2C` the Potency was inconclusive: 20.6 µM [inhibitor, partial curve]. For `CCn1cnc2sc(C(=O)Oc3cccc(C)c3)c(C)c2c1=O`, the activity change, negative = growth inhibition was inconclusive: -33.8% [inhibitor]. With `COc1cccc(COCC(O)Cn2cnc3cc(C)c(C)cc32)c1` (stereo not drawn) the Potency was inconclusive: 25.9 µM [inhibitor, single point]. In the case of `CN(c1nc2ccccc2n2c(C3CC3)nnc12)S(=O)(=O)c1ccccc1`, the Potency is reported as inconclusive: 20.6 µM [inhibitor, single point]. With `NS(=O)(=O)c1ccc(N=Nc2c(O)ccc3ccccc23)cc1` the Potency was inconclusive: 25.9 µM [inhibitor, single point]. For `Cc1cccc(C(=O)NCC(=O)N2CC(=O)Nc3ccccc32)c1`, the “activity change, negative = growth inhibition” value was inactive: 7.61%. For `CCOC(=O)c1ccccc1NC(=O)[C@@H]1CCCN1C(=O)OC(C)(C)C`, the Potency was inconclusive: 29.1 µM [inhibitor, single point]. In the case of `COc1cc(CC(=O)Nc2cccc(SC)c2)cc(OC)c1OC`, the Potency is reported as active: 10.3 µM. For `CCN(CC(=O)N1CCOCC1)S(=O)(=O)c1cc(Cl)ccc1Cl`, the “activity change, negative = growth inhibition” value was inactive: 6.92%. With `Cc1c(C(=O)NCc2ccccn2)oc2ccc(S(=O)(=O)N3CCC4(CC3)OCCO4)cc12` the “activity change, negative = growth inhibition” value was inactive: -19%. For `O=C(CN1CCOCC1)NCc1cc([N+](=O)[O-])ccc1O`, the “activity change, negative = growth inhibition” value was inactive: 13.4%. With `COc1ccc(CNC(=O)CN(C(=O)c2csnn2)c2cccc(C(C)=O)c2)cc1` the activity change, negative = growth inhibition was inconclusive: -28.4% [inhibitor]. With `O=C(CN1CCN(Cc2ccccc2Cl)C1=O)NC1CCCCCCC1` the Potency was inconclusive: 23.1 µM [inhibitor, single point]. In the case of `CC(C)(C)OC(=O)N1CCc2onc(-c3ccc([N+](=O)[O-])cc3)c2C1=O`, the Potency is reported as inconclusive: 1.16 µM [inhibitor, full curve]. With `CS(=O)(=O)Nc1cccc(NC(=O)C2Cc3c(-c4ccco4)ccnc3O2)c1` (stereo not drawn) the Potency was active: 13 µM. In the case of `Cc1nn(-c2ccccc2)c(C)c1/C=N/N1CCN(c2ccccc2)CC1`, the Potency is reported as inconclusive: 18.4 µM [inhibitor, single point]. With `CC(C)(C)NC(=O)c1ccc2nsnc2c1` the “activity change, negative = growth inhibition” value was inactive: -0.75%. With `C=CCNC(=O)/C(C#N)=C/c1cc(Br)ccc1OC` the Potency was inconclusive: 18.4 µM [inhibitor, single point]. In the case of `O=C1CN(C(=O)/C=C/c2cccc(Cl)c2)c2ccccc2N1`, the “activity change, negative = growth inhibition” value is reported as inactive: -28.1%. With `CC(=O)NC(Cc1cc(C)ccc1C)C(=O)N1CCN(C(=O)c2ccccc2Br)CC1` (stereo not drawn) the “activity change, negative = growth inhibition” value was inactive: -0.773%. For `Cn1ncc(Br)c1C(=O)NC1C2CC3CC(C2)CC1C3` (stereo not drawn), the Potency was inconclusive: 25.9 µM [inhibitor, single point]. In the case of `CCOc1ccc(S(=O)(=O)NCCOC)cc1C`, the “activity change, negative = growth inhibition” value is reported as inactive: -13.6%. In the case of `Cc1ccc(C(=O)c2oc3ccc(Cl)cc3c2NC(=O)CN2CCN(C)CC2)cc1`, the Potency is reported as active: 20.6 µM. For `CC(C)CN1CCc2nc(Nc3ccc(F)cc3F)ncc2C1`, the Potency was inconclusive: 29.1 µM [inhibitor, single point]. With `C[C@H]1[C@H](C)CC[C@]2(C(=O)O)CC[C@]3(C)C(=CC[C@@H]4[C@@]5(C)C[C@@H](O)[C@H](O)C(C)(C)[C@@H]5CC[C@]43C)[C@H]12` the Potency was inconclusive: 29.1 µM [inhibitor, single point].
